Measurements published in PubChem BioAssay AID588453 (National Center for Advancing Translational Sciences (NCATS), 2011).
The whole screen tested about 390,000 compounds, of which about 4,000 (1%) were called active. The shares of active, inactive and inconclusive entries below differ from those in the screen. Calls come from the whole dose curve; as a rule, active = well fitted inhibition curve with a large enough effect; inconclusive = small, poorly fitted or top-dose-only effect; inactive = no such curve, though single readings can be large or run the other way. Potencies of inconclusive entries are doubtful fits and often do not repeat.
Note: nearly all actives have a fitted effect of over 65% in size.
Potency is the fitted concentration of half-maximal effect; tags give direction and shape of the fitted curve.

The compounds below were run against Thioredoxin reductase 1, cytoplasmic (Rattus norvegicus) (UniProt O89049) (assay: qHTS Assay for Inhibitors of Mammalian Selenoprotein Thioredoxin Reductase 1 (TrxR1): qHTS). Conditions: recombinant rTrxR1, NADPH fluorescence consumption, selenite substrate; series mostly up to 114 µM.
Chain of UniProt O89049 (O89049 whole entry, looked up): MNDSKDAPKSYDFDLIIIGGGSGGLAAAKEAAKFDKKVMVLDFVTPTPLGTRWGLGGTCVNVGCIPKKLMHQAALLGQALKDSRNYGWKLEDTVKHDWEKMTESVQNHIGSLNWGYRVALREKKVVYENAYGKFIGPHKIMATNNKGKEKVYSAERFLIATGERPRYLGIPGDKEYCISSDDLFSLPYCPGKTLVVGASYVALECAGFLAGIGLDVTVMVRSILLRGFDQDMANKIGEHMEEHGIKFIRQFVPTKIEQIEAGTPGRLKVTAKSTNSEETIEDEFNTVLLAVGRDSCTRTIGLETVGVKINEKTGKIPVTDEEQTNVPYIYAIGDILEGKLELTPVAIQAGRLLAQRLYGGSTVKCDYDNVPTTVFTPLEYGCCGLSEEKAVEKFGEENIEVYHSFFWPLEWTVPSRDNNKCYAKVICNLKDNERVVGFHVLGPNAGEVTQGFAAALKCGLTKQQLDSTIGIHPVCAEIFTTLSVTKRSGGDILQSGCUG
Outline: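 Rat TrxR1 (90 nM in the dispensed reagent) was pre-reduced with 400 uM NADPH for 5 min at room temperature, then incubated with compound for 15 min. After 400 uM selenite was added, NADPH fluorescence (Ex 340/Em 450 nm) was followed for 8 min.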
N#Cc1cc2ccccc2nc1SCC(=O)NC1CC1 was tested, and the Potency was “inactive”. With COc1ccc(C)cc1NC(=O)C(=O)N/N=C(\C)CC(=O)Nc1cccnc1 the Potency was inconclusive: 56.2 µM [inhibitor, partial curve]. With Cc1ccc(N2CC(C(=O)N3CCN(C(=O)c4ccco4)CC3)CC2=O)cc1 (stereo not given) the Potency was inconclusive: 35.5 µM [inhibitor, partial curve, poor fit]. For COc1ccc(C(=O)NC(=S)Nc2ccc(S(=O)(=O)Nc3cc(C)on3)cc2)cc1OC, the Potency was inconclusive: 79.4 µM [inhibitor, partial curve]. With O=c1[nH]cc(CCc2ccccc2)c2ncncc12 the Potency was “inactive”. In the case of O=C(CCNc1cc(Cl)cc(Cl)c1)c1ccco1, the Potency is reported as active: 8.91 µM. In the case of COc1ccc(C(=O)c2no[n+]([O-])c2C(=O)c2ccc(OC)cc2)cc1, the Potency is reported as active: 0.631 µM. With CCN(CC(=O)NCc1cccs1)C(=O)c1ccc([N+](=O)[O-])o1 the Potency was inconclusive: 56.2 µM [inhibitor, partial curve]. For NC(=O)C[C@H]1NC(=O)[C@H](CCC(=O)O)NC(=O)c2cc([N+](=O)[O-])cc(I)c2NCCC[C@@H](C(N)=O)NC1=O, the Potency was inconclusive: 79.4 µM [inhibitor, single point]. With CCN(CC)c1ccc(/C=C/c2cccc[n+]2C)c(OC)c1 the Potency was inconclusive: 35.5 µM [inhibitor, partial curve]. With CC(C)c1cc(Br)ccc1OCCN1C(=O)NC(C)(C)C1=O the Potency was inconclusive: 89.1 µM [inhibitor, single point]. With O=C(CCS(=O)(=O)Cc1ccccc1)Nc1ncc([N+](=O)[O-])s1 the Potency was inconclusive: 70.8 µM [inhibitor, partial curve, poor fit]. CCCc1c(C)c2ccc(OCC(C)=O)cc2oc1=O was tested, and the Potency was inconclusive: 70.8 µM [inhibitor, single point]. In the case of C=CCn1c(-c2cc(-c3ccc(C)cc3)nc3ccccc23)n[nH]c1=S, the Potency is reported as inconclusive: 14.1 µM [inhibitor, partial curve, poor fit]. With O=C(CC1Nc2cccc3cccc(c23)NC1=O)Nc1ccc(F)cc1 (stereo not given) the Potency was inconclusive: 22.4 µM [inhibitor, full curve, poor fit]. O=C(N/N=C/c1cccc2nccnc12)c1ccncc1 was tested, and the Potency was “inactive”. In the case of O=C(COC(=O)C1CCN(/C=C/C(=O)C(F)(F)F)CC1)Nc1cccc(F)c1, the Potency is reported as inconclusive: 39.8 µM [inhibitor, single point]. With COc1cc(OC)c(CN2CCN(c3ccc(F)cc3)CC2)cc1Br the Potency was “inactive”. O=C1NCCN1Cc1ccccc1 was tested, and the Potency was inconclusive: 89.1 µM [inhibitor, partial curve, poor fit]. For CN(C)CCC(=O)C(Cc1ccccc1)c1ccccc1 (stereo not given), the Potency was active: 0.251 µM. For Cn1c(NC(=O)/C=C/c2ccco2)cc(=O)n(C)c1=O, the Potency was inconclusive: 56.2 µM [inhibitor, partial curve, poor fit]. With CO[C@@]1(NC(=O)Cc2cccs2)C(=O)N2C(C(=O)O)=C(COC(N)=O)CS[C@@H]21 the Potency was inconclusive: 79.4 µM [inhibitor, partial curve, poor fit]. For COc1ccc(C(c2c(C)[nH]n(C(N)=S)c2=O)C(C#N)C#N)cc1 (stereo not given), the Potency was inconclusive: 6.31 µM [inhibitor, single point]. For COC(=O)C1Sc2[nH]c(=O)sc2C2c3ccccc3OC(=O)C12 (stereo not given), the Potency was “inactive”. For O=C(COc1ccccc1)N1N=C(c2cccnc2)CC1(O)C(F)(F)F (stereo not given), the Potency was “inactive”. N#CCCn1cc(C=C(C#N)C#N)c(-c2ccc(-c3ccccc3)cc2)n1 was tested, and the Potency was active: 79.4 µM. In the case of Cc1cccc(NC(=O)Cn2cc(S(=O)(=O)Cc3ccccc3Cl)c3ccccc32)c1, the Potency is reported as “inactive”. In the case of Cc1ccc(S(=O)(=O)CC(=O)c2ccccc2)cc1, the Potency is reported as active: 35.5 µM. CC(=O)Oc1cccc(N2C(=O)CC(Nc3ccc(N4CCOCC4)cc3)C2=O)c1 (stereo not given) was tested, and the Potency was inconclusive: 22.4 µM [inhibitor, single point]. With N#Cc1nc(COc2ccccc2F)oc1NCCCn1ccnc1 the Potency was inconclusive: 56.2 µM [inhibitor, partial curve, poor fit]. COCCNC(=O)CSc1nnc2[nH]c(=O)cc(C)n12 was tested, and the Potency was “inactive”. In the case of Cn1nc([N+](=O)[O-])nc1Sc1nnnn1-c1ccc(C(=O)O)cc1, the Potency is reported as inconclusive: 70.8 µM [inhibitor, partial curve]. With CN(Cc1nc(C(c2ccccc2)c2ccccc2)no1)CC1COCCO1 (stereo not given) the Potency was “inactive”. For Cc1cc(N)c2ccccc2[n+]1CCCCCCCCCCCCCC[n+]1c(C)cc(N)c2ccccc21, the Potency was inconclusive: 25.1 µM [inhibitor, full curve, poor fit]. For CCc1ccccc1NS(=O)(=O)c1cc(Br)cc2c1N(C(=O)C1CC1)CC2, the Potency was “inactive”. For Cc1ccc(-n2ncc3c(NNC(=O)c4ccco4)ncnc32)c(C)c1, the Potency was “inactive”. S=C(NCc1ccco1)Nc1cccc(Cl)c1 was tested, and the Potency was inconclusive: 5.01 µM [inhibitor, partial curve]. With CCC1=NN(C(=O)Cc2ccc(OC)c(OC)c2)C(O)(C(F)(F)F)C1 (stereo not given) the Potency was “inactive”. With CC(C)CN1C(=O)CC(Sc2ccccc2C(=O)O)C1=O (stereo not given) the Potency was inconclusive: 79.4 µM [inhibitor, single point]. In the case of CC(=O)N1CCc2c(sc(NC(=O)CS(=O)(=O)c3ccc(F)cc3)c2C(N)=O)C1, the Potency is reported as inconclusive: 79.4 µM [inhibitor, partial curve, poor fit]. COc1cc2c(NC3CCN(C)CC3)nc(N3CCCN(C)CC3)nc2cc1OCCCCCN(C)C was tested, and the Potency was inconclusive: 44.7 µM [inhibitor, partial curve]. Cn1cccc1Cc1nnc(SCC(=O)NCc2ccco2)n1CCc1ccccc1 was tested, and the Potency was inconclusive: 31.6 µM [inhibitor, full curve]. For CCCC(=O)NC(=S)Nc1ccc(NC(=O)C(C)C)c(OC)c1, the Potency was inconclusive: 56.2 µM [inhibitor, partial curve, poor fit]. CC(C)(C)c1ccc(C(=O)c2c[nH]c(C(=O)NCCc3ccccn3)c2)cc1 was tested, and the Potency was “inactive”. In the case of CCOC(=O)C1(C)NC(c2cccs2)C2C(=O)N(c3ccc(OC)cc3)C(=O)C21 (stereo not given), the Potency is reported as “inactive”.
